Molecular target: NMDA receptor (YFP-NR1A + NR2B) (UniProt P35439; Q01097)
Assay: FRET or BRET

B1: Rluc8-mGlu5a (receptor)
chain: not shown
BRET ratio in spine over shaft in the presence of TAT-Homer1a: 1.77 ± 0.12
